In a collection of fitness landscapes (doi:10.1126/science.1257360):
Some of the results follow.

B1: PhoQ; a variant is named by its letters at X, in order, P23837 (parent)
chain: MKKLLRLFFPLSLRVRFLLATAAVVLVLSLAYGMVALIGYSVSFDKTTFRLLRGESNLFYTLAKWENNKLHVELPENIDKQSPTMTLIYDENGQLLWAQRDVPWLMKMIQPDWLKSNGFHEIEADVNDTSLLLSGDHSIQQQLQEVREDDDDAEMTHSVAVNVYPATSRMPKLTIVVVDTIPVELKSSYMVWSWFIYVLSANLLLVIPLLWVAAWWSLRPIEALAKEVRELEEHNRELLNPATTRELTSLVRNLNRLLKSERERYDKYRTTLTDLTHSLKTPLXXLQXXLRSLRSEKMSVSDAEPVMLEQISRISQQIGYYLHRASMRGGTLLSRELHPVAPLLDNLTSALNKVYQRKGVNISLDISPEISFVGEQNDFVEVMGNVLDNACKYCLEFVEISARQTDEHLYIVVEDDGPGIPLSKREVIFDRGQRVDTLRPGQGVGLAVAREITEQYEGKIVAGESMLGGARMEVIFGRQHSAPKDE

Variants of: B1
Assay: enrichment ratio after two sorts for PhoP signalling (ratio (wild type AVST 3.29)); higher = more functional
Details: with PhoP (E. coli)

Variant | enrichment ratio
FNIV | ≤ 0.25
GHAF | ≤ 0.25
FDWE | ≤ 0.25
LSRR | ≤ 0.25
LFLL | ≤ 0.25
AMAY | 7.6
HGPH | ≤ 0.25
FGGC | ≤ 0.25
HNPH | ≤ 0.25
IAET | ≤ 0.25
IYRP | ≤ 0.25
ISKV | ≤ 0.25
DQMY | ≤ 0.25
RGNY | ≤ 0.25
GQYH | ≤ 0.25
SEWF | 1.29
TFNQ | 13.4
DNNQ | ≤ 0.25
VGSG | 2.39
SNHE | ≤ 0.25
ADMR | ≤ 0.25

Variant | enrichment ratio
FNQH | ≤ 0.25
TFSL | 7.53
WPFF | ≤ 0.25
ELDN | ≤ 0.25
RWRF | ≤ 0.25
YPEI | ≤ 0.25
KGWP | ≤ 0.25
MDWK | ≤ 0.25
VMMF | ≤ 0.25
CTSR | ≤ 0.25
INLM | 5.25
MIHQ | 4.33
QFRW | ≤ 0.25
WPYP | ≤ 0.25
YTQM | ≤ 0.25
EWAQ | ≤ 0.25
YRIN | ≤ 0.25
MYPD | ≤ 0.25
GQHV | ≤ 0.25
TMDD | ≤ 0.25
PTYA | ≤ 0.25

Variant | enrichment ratio
WHER | ≤ 0.25
YFEV | ≤ 0.25
WNMY | ≤ 0.25
GDLW | ≤ 0.25
WDPK | ≤ 0.25
FQCQ | ≤ 0.25
LKFE | ≤ 0.25
ICFI | ≤ 0.25
NAFF | ≤ 0.25
GQKD | ≤ 0.25
AFLI | ≤ 0.25
SVGS | 0.772
RCQL | ≤ 0.25
RAGR | ≤ 0.25
KDGN | ≤ 0.25
FACM | 6.18
SNDW | ≤ 0.25
DMGT | ≤ 0.25
SAKV | ≤ 0.25
GAIT | ≤ 0.25
VIMC | ≤ 0.25

Variant | enrichment ratio
PCWS | ≤ 0.25
TWTW | ≤ 0.25
IMSK | ≤ 0.25
RKMN | ≤ 0.25
PHSI | ≤ 0.25
NGAR | ≤ 0.25
NQQH | ≤ 0.25
PGSP | ≤ 0.25
GLYR | ≤ 0.25
RLCI | ≤ 0.25
IMRT | ≤ 0.25
CFGF | ≤ 0.25
VVFE | ≤ 0.25
WPLG | ≤ 0.25
FWHC | ≤ 0.25
WMPS | ≤ 0.25
RITS | ≤ 0.25
RFPL | ≤ 0.25
SLAR | ≤ 0.25
KRLS | ≤ 0.25
KVNC | ≤ 0.25
